Experimental data published in PubChem BioAssay AID540267 (National Center for Advancing Translational Sciences (NCATS), 2011).
In all, about 340,000 compounds went through this assay and about 530 (0.16%) were called active. Inconclusive means that the source gave no clear call. Such entries were picked first, then a sample of the others. Cut-off read from the data, not from the text of the source: active = activity change below about -80%; inconclusive = between about -30% and that limit; inactive = weaker than that.

assay: Small Molecules that selectively kill Giardia lamblia: qHTS; conditions: Giardia lamblia trophozoite viability; at 7.66 µM; stronger effect = lower value;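 note: parasites exposed to compound for two days anaerobically before the ATP read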
Method in brief: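 Anaerobic 48 hrs incubation at 37 deg C of 100 trophozoites/well with test compounds; ATPLite 1-Step luminescence, 15-30 min RT, reports cellular ATP as viability.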
% is set by controls: 0 for no effect and ±100 for the full control effect.

SMILES | activity change
CCOC(=O)C1(CCc2ccccc2)CCN(Cc2cc(OC)c(OC)cc2OC)CC1 | inactive: -4.75%
Cc1nnc(SCC(=O)Nc2nc3ccccc3s2)n(N)c1=O | inactive: -10.9%
Cc1cc(C(=O)N/N=C/c2ccc(O)c([N+](=O)[O-])c2)n[nH]1 | inconclusive: -59.3% [inhibitor]
CC(=O)N1CC(=O)N=C1SCC(=O)Nc1nc(-c2ccccc2)c(-c2ccccc2)s1 | inactive: 12.7%
COc1ccc(NC(=O)c2cnn(-c3ccccc3)c2C)c(OC)c1 | inconclusive: -30.1% [inhibitor]
COc1ccc(CCNC(=O)CCNC(=O)c2ccc(Br)cc2)cc1OC | inconclusive: -30% [inhibitor]
COc1ccc(N(CC(=O)NC2CCCCC2)C(=O)CNC(=O)c2ccco2)cc1OC | inconclusive: -36.2% [inhibitor]
COc1ccc(C2C(C#N)=C(N)Oc3c2oc(CO)cc3=O)cc1 (stereo not drawn) | inactive: 7.77%
COc1cnc(-c2ccccc2)nc1Oc1ccccc1C | inactive: -18.3%
C[n+]1cc2c3c(ccc2c2ccc4cc5c(cc4c21)OCO5)OCO3 | inconclusive: -41.9% [inhibitor]
Cc1cc(C)cc(NC(=O)c2ccc([N+](=O)[O-])o2)c1 | active: -94.8%
O=C(Nc1nnc(-c2ccco2)o1)c1ccc([N+](=O)[O-])s1 | active: -80.9%
S=C(NCc1ccccc1)Nc1cccc(Cl)c1 | inconclusive: -32.2% [inhibitor]
C(=Nc1ccc(N2CCOCC2)cc1)c1c[nH]c2ccccc12 | inactive: -14.6%
Cc1cc(-c2cccs2)c(C#N)c(=S)[nH]1 | inconclusive: -30.7% [inhibitor]
COc1ccc(-n2nc3c(c2NC(=O)c2c(F)cccc2Cl)CS(=O)C3)cc1 (stereo not drawn) | inconclusive: -36.6% [inhibitor]
CN1CCN(c2ccc(NC(=O)c3ccc4c(c3)OCCO4)cc2Cl)CC1 | inconclusive: -47.7% [inhibitor]
CC(=O)c1sc(NC(=O)c2cc(=O)c3ccccc3o2)nc1C | inconclusive: -36.9% [inhibitor]
Cc1cc2ncc(-c3cccs3)nc2cc1C | inconclusive: -33.3% [inhibitor]
CCc1c(C(=O)NCCc2ccc(OC)c(OC)c2)[nH]c(C)c1C(C)=O | inactive: 7.23%
CNc1nc(-c2cccs2)cc(C(F)(F)F)c1C#N | inconclusive: -31.4% [inhibitor]
CN(C)C=Nc1ccc(Cl)c(Cl)c1 | inconclusive: -36.8% [inhibitor]
Cc1cc(C)c(C)c(S(=O)(=O)N2CCSCC2)c1C | inconclusive: -30% [inhibitor]
O=C(NC1CCCC1)c1ccc(Br)s1 | inconclusive: -32.7% [inhibitor]
Oc1cccc(/C=N/N2CCN(C3c4ccccc4-c4ccccc43)CC2)c1 | inconclusive: -32.8% [inhibitor]
COc1ccc2oc(C(=O)NCc3cc(OC)c(OC)cc3OC)c(C)c2c1 | inconclusive: -32.3% [inhibitor]

SMILES | activity change
Cc1cc(C(=O)Nc2ccc3c(c2)OCCO3)ccc1[N+](=O)[O-] | inconclusive: -60.5% [inhibitor]
CC/C(=N\NC(=O)CNC(=O)/C=C/c1ccc(OC)cc1)c1ccccc1 | inconclusive: -31.3% [inhibitor]
O=C(Nc1ccc(-c2nc3ccccc3s2)cc1)C1=COCCO1 | inconclusive: -51.4% [inhibitor]
CS(=O)(=O)c1ccc2nc(NC(=O)c3ccco3)sc2c1 | inactive: -15.1%
Cc1ccc2nsnc2c1NC(=O)c1ccc([N+](=O)[O-])o1 | active: -84.6%
CC(C)(C)n1nc(Cc2cccc3ccccc23)c2c(N)ncnc21 | inconclusive: -30.9% [inhibitor]
C[C@@H]1COC(=O)[C@@H](CC(=O)OC(C)(C)C)C/C=C\C[C@H](CC(=O)N(CCO)Cc2ccccc2)C(=O)N1 | inconclusive: -37% [inhibitor]
Cc1ccc(C(=O)Nc2cccc(C(=O)O)c2)cc1 | inconclusive: -32.9% [inhibitor]
COc1ccc(Cl)cc1NC(=O)Nc1ccc(C(=O)N2CCCC2)cc1 | inactive: -9.28%
COc1ccc(OC)c(-c2csc(NC(=O)Cc3ccccc3F)n2)c1 | inactive: -9.55%
CCc1n(CC(O)COC2CCCCC2)c2ccccc2[n+]1C (stereo not drawn) | inconclusive: -38.3% [inhibitor]
O=C(NNC(=O)c1cc(-c2ccncc2)nc2ccccc12)c1ccccc1O | inconclusive: -45.5% [inhibitor]
Cc1cc2c(cc1C)C(c1cc(Br)ccc1F)CC(=O)N2 (stereo not drawn) | inconclusive: -40.8% [inhibitor]
Cc1cc(Nc2ccc(N(C)C)cc2)n2ncnc2n1 | inconclusive: -31.1% [inhibitor]
O=C(Cn1cnc2c(NC(=O)OCc3ccccc3)ncnc21)NCCN1CCOCC1 | inconclusive: -41.4% [inhibitor]
Cc1cccc(CCN2C(N(C)C)=NC[C@@H]2Cc2ccccc2)c1 | inactive: 0.865%
COc1cc(-c2nc3ccccn3c2/N=C/c2ccccc2)ccc1O | inactive: -3.98%
Cc1ccc(-n2ccnc(SCC(=O)NCCc3ccccc3)c2=O)cc1F | inconclusive: -36.1% [inhibitor]
COc1ccccc1CN1CCN(Cc2ccco2)CC1 | inactive: -8.54%
Cc1ccc(CCN2CC(C(=O)NCCN(C)C)CC2=O)cc1 (stereo not drawn) | inconclusive: -33.4% [inhibitor]
Cc1nc2ccc(NS(=O)(=O)c3ccccc3F)cc2s1 | inconclusive: -31.3% [inhibitor]
O=C1CC(SC(=Nc2ccccc2)Nc2ccccc2)C(=O)N1c1cccc2ccccc12 (stereo not drawn) | inconclusive: -46.6% [inhibitor]
Cc1c([N+](=O)[O-])c([N+](=O)[O-])nn1CC(=O)NCCc1ccccc1 | inconclusive: -33.1% [inhibitor]
Cc1ccc(CNS(=O)(=O)c2cccc3nsnc23)cc1 | inconclusive: -38.5% [inhibitor]
COc1ccc(S(=O)(=O)Nc2cccc3c2O[C@H](CN(C)C(=O)Nc2ccc(C(F)(F)F)cc2)[C@@H](C)CN([C@H](C)CO)C3=O)cc1 | inconclusive: -41.2% [inhibitor]
COc1cc2c(cc1OC)C(C)N(C(=O)c1cc3c(s1)-c1c(C)cccc1OC3)CC2 (stereo not drawn) | inconclusive: -34.3% [inhibitor]

SMILES | activity change
CC1Oc2ccccc2N(CC(=O)N2CCCCCC2)C1=O (stereo not drawn) | inconclusive: -32.2% [inhibitor]
Cc1cc(NC(=O)Cn2nnc(-c3ccccc3N)n2)no1 | inconclusive: -31.5% [inhibitor]
COCCNc1c2c(nc3ccccc13)CCC2 | inconclusive: -33.3% [inhibitor]
Cc1cc(OCC(=O)N2CCOCC2)ccc1NC(=O)c1ccccc1C | inconclusive: -37.8% [inhibitor]
O=C(COC(=O)Cc1c[nH]c2ccccc12)Nc1cccc2ccccc12 | inconclusive: -40% [inhibitor]
CC(c1ccon1)N(C)C(=O)CCc1nnc(Cc2ccc(-c3ccccc3)cc2)o1 (stereo not drawn) | inconclusive: -32.6% [inhibitor]
O=C(Cn1[nH]c(=O)c2ccccc2c1=O)NC1CCCCCC1 | inconclusive: -31.8% [inhibitor]
CCc1ccc(S(=O)(=O)N2c3ccc(C)cc3C3CN(C)CCC32)cc1 (stereo not drawn) | inactive: -29%
O=c1c([N+](=O)[O-])cccn1Cc1cccc(Br)c1 | active: -85%
CN(C(=O)c1ccc(NC(=O)Cc2cccc(NC(=O)C3CCN(C(=O)CCc4ccccc4)CC3)c2)cc1)C1CCCC1 | inconclusive: -35.6% [inhibitor]
COc1ccc(OC)c(NC(=O)CSc2nncc3ccc(OC)c(OC)c23)c1 | inactive: -11.6%
CN(CC(=O)Nc1ccccc1Cl)C(=O)COC(=O)c1nc(Cl)c(Cl)c(Cl)c1Cl | inconclusive: -38% [inhibitor]
COc1ccc(C(c2c(O)nc(SC)n(C)c2=O)c2c(O)nc(SC)n(C)c2=O)cc1O | inactive: 17.1%
O=C(Nc1ncccn1)c1ccc([N+](=O)[O-])cc1[N+](=O)[O-] | inconclusive: -34.8% [inhibitor]
COc1ccc(NC(C)C(=O)N/N=C/c2ccc([N+](=O)[O-])s2)cc1 (stereo not drawn) | active: -89%
COCCCNc1nc2c(-c3ccc(Cl)cc3)nnn2c2ccccc12 | inconclusive: -32.8% [inhibitor]
COc1ccc(-c2nnn(Cc3ccccc3)n2)cc1OC | inconclusive: -35% [inhibitor]
Cc1ccc(NC(=O)Nc2ccc3oc(C)nc3c2)cc1 | inconclusive: -31.9% [inhibitor]
COc1ccc(CCNC(=O)CCc2nc3ccccc3[nH]2)cc1OC | inconclusive: -42.2% [inhibitor]
CC(=O)NC(Cc1ccccc1C)C(=O)NC1CCN(c2nnnn2-c2ccccc2)CC1 (stereo not drawn) | inconclusive: -31.7% [inhibitor]
CCOC(=O)c1c(-c2cccs2)csc1NC(=O)CC(C)C | inactive: -4.11%
CC(C)c1ccc(NC(=S)NCCc2c[nH]c3ccccc23)cc1 | inactive: -9.91%
O=C(c1sc2ccccc2c1Cl)N(Cc1ccccc1)C1CCS(=O)(=O)C1 (stereo not drawn) | inactive: 11.9%
Clc1ncnc2scc(-c3ccc(Br)cc3)c12 | inconclusive: -32.6% [inhibitor]
CCOC(=O)[C@@H]1[C@H]2COc3cc(OC)ccc3[C@@H]2N2C(=O)N(c3ccccc3)C(=O)[C@@]12C | inconclusive: -33.9% [inhibitor]
COc1ccc(Cn2cnc([N+](=O)[O-])c2)cc1[N+](=O)[O-] | inconclusive: -64.8% [inhibitor]
